The full ranking holds about 33,000 sequences; the median of “E-score (-0.5 to 0.5)” is about -0.054, and the highest 2% start at about 0.35. The list shows a part of the results.
Target: T1, Stb5 (UniProt P38699)
T1 sequence: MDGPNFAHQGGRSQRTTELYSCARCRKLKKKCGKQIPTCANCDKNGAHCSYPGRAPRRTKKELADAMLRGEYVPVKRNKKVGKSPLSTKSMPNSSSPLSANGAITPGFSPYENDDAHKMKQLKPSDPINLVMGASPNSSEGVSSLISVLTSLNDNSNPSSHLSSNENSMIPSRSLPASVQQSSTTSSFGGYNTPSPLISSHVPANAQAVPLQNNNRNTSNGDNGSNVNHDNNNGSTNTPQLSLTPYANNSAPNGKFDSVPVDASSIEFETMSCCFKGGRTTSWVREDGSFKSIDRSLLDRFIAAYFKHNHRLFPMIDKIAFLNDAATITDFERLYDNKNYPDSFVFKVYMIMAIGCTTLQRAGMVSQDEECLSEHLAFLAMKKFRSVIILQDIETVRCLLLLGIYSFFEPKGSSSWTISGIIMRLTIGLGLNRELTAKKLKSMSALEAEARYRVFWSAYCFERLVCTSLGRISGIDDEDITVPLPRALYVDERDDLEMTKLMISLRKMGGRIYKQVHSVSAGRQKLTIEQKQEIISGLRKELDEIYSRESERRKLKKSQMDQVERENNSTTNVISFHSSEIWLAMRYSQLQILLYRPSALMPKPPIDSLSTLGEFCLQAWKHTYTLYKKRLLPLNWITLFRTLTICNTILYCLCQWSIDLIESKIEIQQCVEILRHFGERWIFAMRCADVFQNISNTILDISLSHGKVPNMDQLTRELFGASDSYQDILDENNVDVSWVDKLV
Assay: PBM E-score (8-mer binding enrichment) (E-score (-0.5 to 0.5)); higher = stronger / more preferred TF binding; most listed sequences are background and not binding sites
Conditions: protein concentration: 200 nM; construct: GST-full length
Summary of the method: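 PURExpress in vitro transcription/translation supplied GST-tagged yeast transcription factors, either full-length or DNA-binding domain. Applied at about 100-200 nM to universal all-10-mer Agilent arrays double-stranded by primer extension, the bound protein was detected with fluorescent anti-GST. E-scores, modified Wilcoxon-Mann-Whitney statistics, were given by the Universal PBM Analysis Suite to ungapped eight-base words pooled with their reverse complements after masliner normalisation.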

| Sequence | PBM E-score |
| --- | --- |
| GGCTGCTA | -0.0785 |
| AGTGCCAT | -0.0439 |
| GACCAATA | 0.0169 |
| CCGCCCTC | 0.272 |
| GCACTAGC | 0.137 |
| CCGTCGGA | 0.37 |
| CAAGTTTC | -0.0674 |
| ACCATGCT | -0.14 |
| CTAGCTGC | -0.0672 |
| CCTTATTA | -0.0929 |
| AAGGCATT | -0.00479 |
| ACCCACTC | -0.0808 |
| CCCCAGAG | -0.174 |
| AATTGACT | -0.184 |
| CAGGACTC | -0.196 |
| AAAGGTGT | 0.146 |
| CACGTACC | -0.0861 |
| ACCAGCCA | -0.248 |
| ATCGGCCA | 0.179 |
| GACGACGC | -0.029 |
| CGTGTCAC | -0.106 |
| ATACGTCA | -0.00151 |
| AGCGGTCG | 0.22 |
| ACCTCCCA | -0.199 |
| ATGTTCTA | -0.0932 |

| Sequence | PBM E-score |
| --- | --- |
| AAACTTGC | 0.118 |
| GTTCACCA | -0.133 |
| AATTCATC | 0.0312 |
| AGCCCCAG | -0.162 |
| AATGAGCA | -0.191 |
| GAAAACCC | 0.278 |
| CGTTCTTC | -0.00265 |
| GCGAAGAC | 0.163 |
| GATAATAA | 0.189 |
| CGGAAGTA | 0.352 |
| CGGGCATC | 0.122 |
| GATATTGC | 0.155 |
| CCCCACCG | 0.221 |
| GCCGAAGC | 0.215 |
| AGGTGCCG | 0.179 |
| CAGTAAGC | -0.133 |
| CGCTAAAC | 0.139 |
| ATGCCCAG | -0.192 |
| CCGTAGAG | 0.0676 |
| AGGAGTAC | -0.166 |
| ACCAATGA | -0.0818 |
| CACCATTC | -0.283 |
| AATTTTAT | 0.292 |
| ATAGTTGG | -0.0158 |
| AGTCCGAA | 0.299 |

| Sequence | PBM E-score |
| --- | --- |
| AATAAGAG | 0.212 |
| CCCAAGGG | -0.177 |
| GTGACGAA | -0.131 |
| ACCGGGAC | 0.217 |
| TGCGTAAA | -0.0108 |
| ATGTCCAA | -0.0119 |
| TATGCTCA | -0.157 |
| GCTGTGAA | -0.141 |
| CCTTGCAA | -0.312 |
| CCCAACCA | -0.0714 |
| ACAGGTTA | 0.0309 |
| ACGGGAGA | -0.0373 |
| ATTCAAAC | -0.0568 |
| AGTAGTCG | -0.0258 |
| CAGTGATG | -0.218 |
| AAAAAATC | -0.0793 |
| ACTTGGAC | 0.0571 |
| GGGGGGAC | -0.0771 |
| CCGCTGAG | 0.177 |
| ACCTGCCG | -0.0814 |
| ACCTTCTC | -0.198 |
| ATTGCGCC | 0.184 |
| AGCGGCTA | 0.214 |
| AGACATAG | -0.0198 |
| TCAATGAA | -0.157 |

| Sequence | PBM E-score |
| --- | --- |
| AGGTTAGC | 0.0304 |
| AGAACACA | -0.307 |
| CGAACATA | 0.0267 |
| CTATGTGA | -0.0254 |
| GGATCCCA | -0.147 |
| TAGACCAA | -0.239 |
| GCACCTAC | 0.127 |
| CAGTCAAG | -0.338 |
| CCAGCCAA | -0.126 |
| AGCTCACT | -0.344 |
| CGTTGCTA | 0.123 |
| AGTTCGTG | -0.121 |
| AGCTATCG | -0.103 |
| CTTAACGA | -0.0773 |
| CGTGTTGA | 0.0142 |
| CCTCGTAG | -0.228 |
| GTACTTGA | -0.172 |
| CGCGGCAA | 0.263 |
| ATTTCATA | -0.096 |
| ACTACATG | -0.233 |
| GTCAGGCA | -0.00262 |
| ATCTACGG | 0.265 |
| CGGATACG | 0.0735 |
| CAGTCGGC | 0.244 |
| ACAAAGAG | -0.148 |

| Sequence | PBM E-score |
| --- | --- |
| CAGAGTCC | 0.164 |
| GAATCCTC | -0.239 |
| CCCAGCTC | -0.176 |
| CGTGGCAC | -0.0381 |
| ACGTACAA | -0.133 |
| CTTTAGGC | 0.036 |
| CCCTAGCC | -0.102 |
| GCCCGGCA | 0.249 |
| CTCAACGA | 0.00902 |
| ATGACGCA | -0.159 |
| ATGGGAGG | 0.0364 |
| TACAGCGA | -0.248 |
| CGGGTGTA | 0.37 |
| GCTTTCCC | -0.00065 |
| CTTGTACC | 0.043 |
| AAGGTTAC | -0.293 |
| AAATGGCT | -0.197 |
| ATTCAATG | -0.101 |
| ACTACTAC | -0.00154 |
| ATCGTCTC | -0.0221 |
| AGCTCGTA | -0.28 |
| TGCATGCA | -0.23 |
| AGAAATGA | -0.166 |
| TACCAGAA | -0.0189 |
| ATGACCCC | 0.278 |

| Sequence | PBM E-score |
| --- | --- |
| CGTTCGAC | -0.0847 |
| ACCGACTC | 0.215 |
| AAGTAGAG | -0.202 |
| GGGCTGAC | 0.0657 |
| ACGGGTAC | -0.079 |
| CTATTACC | 0.313 |
| CCAGTGGC | -0.176 |
| TAAAATGA | -0.0173 |
| AAGGTCGG | 0.317 |
| CCCACTAA | -0.0418 |
| ACACATCT | -0.153 |
| AGCTTCTA | -0.0951 |
| AATAAGTG | -0.129 |
| CGCGAACA | -0.109 |
| CTTTCCGA | 0.0686 |
| ATGACCGC | 0.381 |
| ACTGATCA | -0.00756 |
| AATTGCTC | -0.00678 |
| ATAGATTA | -0.0553 |
| GCCCGAAA | 0.159 |
| CCGCTTTA | 0.337 |
| GGGTGTTA | 0.25 |
| AGACGCTG | -0.0878 |
| GCCGTCCA | 0.223 |
| CATCGCAG | -0.0956 |

| Sequence | PBM E-score |
| --- | --- |
| CCCTAGCG | -0.0943 |
| ACAATCAA | -0.148 |
| GACGGAGC | 0.311 |
| AACGACAA | -0.00501 |
| AAATGATG | -0.24 |
| AGATTATC | -0.143 |
| ATTACCGA | 0.38 |
| AGTCCACG | 0.0828 |
| CACATTCG | -0.0522 |
| ATCGGTGA | 0.366 |
| CCGTTATC | 0.186 |
| AGCGAAGG | -0.0665 |
| CTCCCTAA | -0.259 |
| AATGCTCA | -0.362 |
| GACGGTAC | 0.312 |
| CAGATCTA | -0.154 |
| CACCATGA | 0.077 |
| ATCACATA | -0.0836 |
| CGCCCCTC | 0.0818 |
| CACGGGTC | 0.0592 |
| GGATTCCA | -0.0341 |
| GATGAGCC | -0.0885 |
